{
  "source": "PubChem BioAssay AID540267",
  "about": "(National Center for Advancing Translational Sciences (NCATS), 2011)",
  "note": "The whole screen tested about 340,000 compounds, of which about 530 (0.16%) were called active. This list was built around the results that the source calls inconclusive (neither active nor inactive); the mix of calls is not that of the screen. No stated cut-off is given here; in the data, active means activity change below about -80%; inconclusive means between about -30% and that limit; inactive means weaker than that. On the % scale 0 is the no-effect control and ±100 the full control effect.",
  "data": [
    {"test": "Small Molecules that selectively kill Giardia lamblia: qHTS;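 further: parasites exposed to compound for two days anaerobically before the ATP read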", "conditions": "Giardia lamblia trophozoite viability; at 7.66 µM; active compounds read low", "summary_of_the_method": "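Each well holds 100 Giardia trophozoites and compound. After two days (48 hrs) at 37 deg C in anaerobic conditions, ATP is quantified by luminescence.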", "values": [
      {"smiles": "O=S(=O)(c1ccccc1Br)N1CCN(c2nc(-c3cccs3)nc3ccccc23)CC1", "activity change": "inactive: -8.12%"},
      {"smiles": "O=[N+]([O-])c1ccccc1/C=C\\C=N\\N1CCN(c2ccccc2)CC1", "activity change": "inconclusive: -30.2% [inhibitor]"},
      {"smiles": "CCOc1ccccc1CN1CCN(Cc2ccc(C)o2)C(CCO)C1", "note": "(stereo not given)", "activity change": "inactive: -14.1%"},
      {"smiles": "O=C(Nc1ccc(Oc2ncccn2)cc1)c1ccco1", "activity change": "inconclusive: -30.8% [inhibitor]"},
      {"smiles": "COc1cccc(C2c3c(oc4ccccc4c3=O)C(=O)N2CCCN2CCOCC2)c1", "note": "(stereo not given)", "activity change": "inconclusive: -42.6% [inhibitor]"},
      {"smiles": "CC(=O)Nc1ccc(NC(=O)c2ccc(COc3ccccc3)cc2)cc1", "activity change": "inconclusive: -34% [inhibitor]"},
      {"smiles": "N#Cc1ccc(-c2c(-c3ccccc3)ncc3cc(F)ccc23)cc1", "activity change": "inconclusive: -45.1% [inhibitor]"},
      {"smiles": "COc1cc(NC(=O)CCC(=O)OCCCC(F)(F)C(F)(F)F)nc(OC)n1", "activity change": "inactive: -6.07%"},
      {"smiles": "CC(=O)c1c(OC(=O)c2ccccc2Br)ccc2c(C)cc(=O)oc12", "activity change": "inconclusive: -33.4% [inhibitor]"},
      {"smiles": "COc1ccc(C(O)P(=O)(OC(C)C)c2ccc(N(C)C)cc2)c(OC)c1", "note": "(stereo not given)", "activity change": "inconclusive: -38.2% [inhibitor]"},
      {"smiles": "CN(C)c1ccc(-c2nc3ccccc3c(=O)[nH]2)cc1", "activity change": "inconclusive: -72.4% [inhibitor]"},
      {"smiles": "CC(C)(C)c1cc(C(=O)Nc2ccc(F)cc2)n(Cc2ccc(F)cc2)n1", "activity change": "inactive: -11.4%"},
      {"smiles": "CCCNC(=O)c1cc(Cl)c(NC(=O)C2=C(C)OCCS2)cc1OC", "activity change": "inconclusive: -35.2% [inhibitor]"},
      {"smiles": "O=C1NC(=Nc2ccc(Cl)cc2)/C(=C/c2ccco2)S1", "activity change": "inconclusive: -34.1% [inhibitor]"},
      {"smiles": "COC(=O)c1nn(Cc2ccccc2)c(=O)c2ccccc12", "activity change": "inactive: 10.6%"},
      {"smiles": "O=C(NC1CCCCCCC1)c1cc(COc2ccc3ncccc3c2)on1", "activity change": "inactive: -16.8%"},
      {"smiles": "COc1cc2oc3ccccc3c2cc1N(CC(=O)N(C)C)S(=O)(=O)c1ccccc1", "activity change": "inactive: 5.17%"},
      {"smiles": "Cc1cc(NC(=O)c2cccs2)ccc1NC(=O)Cc1ccccc1", "activity change": "inconclusive: -31.2% [inhibitor]"},
      {"smiles": "Fc1cccc(/C=N/Nc2nncc3ccccc23)c1", "activity change": "inconclusive: -48% [inhibitor]"},
      {"smiles": "CC(NC(=O)COC(=O)c1cccc(S(=O)(=O)N2CCCC2)c1)c1ccccc1", "note": "(stereo not given)", "activity change": "inconclusive: -30.1% [inhibitor]"},
      {"smiles": "COc1cc(CSC)nc(-c2ccccc2)n1", "activity change": "inconclusive: -30.2% [inhibitor]"},
      {"smiles": "Cc1ccc([C@@H]2CC=C(C(=O)O)[C@H](c3ccccc3F)N2S(=O)(=O)c2ccccc2C)cc1", "activity change": "inconclusive: -34.5% [inhibitor]"},
      {"smiles": "COc1cc(-c2nc3ccc(C)cn3c2NCc2ccccc2)ccc1SC1CCCCC1", "activity change": "inactive: -4.07%"},
      {"smiles": "Cc1cc(C(=O)N/N=C/c2ccc(-c3ccc([N+](=O)[O-])cc3Cl)o2)n[nH]1", "activity change": "inactive: -0.926%"},
      {"smiles": "COc1cccc(NC(=O)CN(C)C(=O)c2sc3cc(Cl)ccc3c2Cl)c1", "activity change": "inactive: 12.8%"},
      {"smiles": "O=C(O)CC/C(=C\\c1cc([N+](=O)[O-])ccc1Cl)c1nc2ccccc2s1", "activity change": "inactive: -6.23%"},
      {"smiles": "O=C(Nc1nc2ccccc2[nH]1)c1ccc(OC(F)F)cc1", "activity change": "inconclusive: -33.2% [inhibitor]"},
      {"smiles": "O=S(=O)(c1ccc(C(F)(F)F)cc1)N1CCN(CCc2ccccc2)CC1", "activity change": "inactive: 28.8%"},
      {"smiles": "O=C(Nc1ccc(F)c(Cl)c1)C1CCCN(C2=NS(=O)(=O)c3ccccc32)C1", "note": "(stereo not given)", "activity change": "inactive: -28.4%"},
      {"smiles": "CCc1ccc([C@@H]2CC=C(C(=O)O)[C@H](c3ccc(F)cc3)N2S(=O)(=O)c2ccc(C)cc2)cc1", "activity change": "inconclusive: -36.1% [inhibitor]"},
      {"smiles": "S=C1NCCc2ccc(Cl)cc2C1c1ccccc1", "note": "(stereo not given)", "activity change": "inactive: -9.46%"},
      {"smiles": "CCN(CC)CCN(C(=O)c1ccc([N+](=O)[O-])cc1)c1nc2c(OC)cccc2s1", "activity change": "inactive: -28.5%"},
      {"smiles": "O=C(NC1CC1)C1CC(=O)N(c2cccc(Cl)c2)C1", "note": "(stereo not given)", "activity change": "inconclusive: -37.3% [inhibitor]"},
      {"smiles": "Cc1ccc2nc(-c3cccc(N)c3)oc2c1", "activity change": "inconclusive: -46.7% [inhibitor]"},
      {"smiles": "COc1ccc(NC(=O)c2c(NC(=O)CCC(=O)O)sc(-c3ccccc3)c2C)cc1", "activity change": "inactive: -12%"},
      {"smiles": "O=C(Cc1csc(Nc2nc(=S)[nH]c3ccccc23)n1)NCc1cccc(Cl)c1", "activity change": "inactive: -2.49%"},
      {"smiles": "COc1ccc(C)cc1NC(=O)C1CCCCN1S(=O)(=O)c1ccccc1", "note": "(stereo not given)", "activity change": "inconclusive: -34.1% [inhibitor]"},
      {"smiles": "Cc1cccc(NC(=O)CSc2ncnc3c2oc2ccccc23)c1", "activity change": "inconclusive: -35% [inhibitor]"},
      {"smiles": "O=c1sc(N2CCN(c3ccc(F)cc3)CC2)nc2ccsc12", "activity change": "inconclusive: -51.2% [inhibitor]"},
      {"smiles": "COc1ccc(/C=C2\\SC(=O)N(CC(=O)NC3CCS(=O)(=O)C3)C2=O)cc1", "note": "(stereo not given)", "activity change": "inactive: -9.43%"},
      {"smiles": "C/C(=N/NS(=O)(=O)c1ccc(Br)cc1)c1ccc(NC(=O)c2ccc(C)o2)cc1", "activity change": "inconclusive: -30.1% [inhibitor]"},
      {"smiles": "Brc1ccc(-c2ccc(/C=N/Nc3nc4ccccc4[nH]3)o2)cc1", "activity change": "inconclusive: -48.3% [inhibitor]"},
      {"smiles": "Cc1ccc(N2C(=O)CC(Sc3nccc(C)n3)C2=O)cc1", "note": "(stereo not given)", "activity change": "inactive: -22%"},
      {"smiles": "CCOC(=O)N/N=C\\c1ccc([N+](=O)[O-])s1", "activity change": "active: -99.4%"},
      {"smiles": "Cc1ccc2c(CN3CCCCC3)cc(=O)oc2c1C", "activity change": "inactive: 2.01%"},
      {"smiles": "COc1ccc(N=N/C(C(C)=O)=C(/C)O)cc1", "activity change": "inconclusive: -40.5% [inhibitor]"},
      {"smiles": "Cc1cccc(NC(=O)c2cc(-c3ccco3)nc3ccccc23)n1", "activity change": "inactive: -27.5%"},
      {"smiles": "CCCn1c(SC(C)C(=O)NCC2CCCO2)nc2sc(CC)cc2c1=O", "note": "(stereo not given)", "activity change": "inconclusive: -34.5% [inhibitor]"},
      {"smiles": "Cc1cccc(N(C)S(=O)(=O)c2nnc(NC(=O)c3ccco3)s2)c1", "activity change": "inactive: -2.48%"},
      {"smiles": "Cc1ccc(C)c(C(=O)COC(=O)c2cccc(N3C(=O)c4c(C)nc5ccccc5c4C3=O)c2)c1", "activity change": "inconclusive: -32% [inhibitor]"},
      {"smiles": "O=C(CC(c1ccccc1)c1cc(Br)ccc1O)N1CCCCC1", "note": "(stereo not given)", "activity change": "inconclusive: -33.8% [inhibitor]"},
      {"smiles": "Cn1c(/C=C/c2ccc([N+](=O)[O-])o2)nc2ccccc2c1=O", "activity change": "inconclusive: -36.1% [inhibitor]"},
      {"smiles": "CSc1nnc(N2C(=O)C(O)=C(C(=O)c3ccco3)C2c2ccccc2)s1", "note": "(stereo not given)", "activity change": "inconclusive: -33.6% [inhibitor]"},
      {"smiles": "Cc1ccc(OCC(=O)N2N=C(c3cccnc3)CC2(O)C(F)(F)F)cc1C", "note": "(stereo not given)", "activity change": "inactive: -18.7%"},
      {"smiles": "CN(C)c1ccc2nsnc2c1[N+](=O)[O-]", "activity change": "inconclusive: -78.6% [inhibitor]"},
      {"smiles": "Cc1c(C(=O)NC(C)C)oc2c1-c1[nH]ncc1CC2", "activity change": "inconclusive: -36.8% [inhibitor]"},
      {"smiles": "Cc1cnc(C(=O)OCC(=O)N2CCN(C(=O)c3ccco3)CC2)cn1", "activity change": "inconclusive: -32.7% [inhibitor]"},
      {"smiles": "Fc1ccccc1CNC(=S)NCc1ccc(Cl)cc1", "activity change": "inactive: 8.92%"},
      {"smiles": "O=C(CCS(=O)(=O)c1ccccc1)Nc1ncc([N+](=O)[O-])s1", "activity change": "active: -80.7%"},
      {"smiles": "O=C(NC1(C(F)(F)F)NC(=O)N(Cc2ccco2)C1=O)c1cccs1", "note": "(stereo not given)", "activity change": "inconclusive: -35.6% [inhibitor]"},
      {"smiles": "COc1cc(/C=C/C(C)=NNc2ccccc2)ccc1O", "activity change": "inactive: 8.89%"},
      {"smiles": "C[C@H](CO)N1C[C@H](C)[C@@H](CN(C)CC2CC2)Oc2c(NS(=O)(=O)c3ccccc3)cccc2C1=O", "activity change": "inconclusive: -32.4% [inhibitor]"},
      {"smiles": "COc1cccc(NC(=O)[C@@H]2CCCN2C(=O)C2CCN(S(=O)(=O)c3ccc(C)cc3)CC2)c1", "activity change": "inactive: 7.99%"},
      {"smiles": "Cc1ccc(S(=O)(=O)NCCCn2ccnc2)cc1C(=O)NC(C)C", "activity change": "inconclusive: -32% [inhibitor]"},
      {"smiles": "Fc1c(F)c(F)c(NC2=NCCCCC2)c(F)c1F", "activity change": "inconclusive: -30.7% [inhibitor]"},
      {"smiles": "O=c1ccn(Cc2ccccc2)c2ccccc12", "activity change": "inactive: -0.828%"},
      {"smiles": "Cn1c(=O)[nH]c(=O)c2c1nc(N1CCN(CCO)CC1)n2Cc1ccccc1", "activity change": "inactive: -3.47%"},
      {"smiles": "O=C(c1cc(-c2cccs2)nc2ccccc12)N1CCN(S(=O)(=O)c2ccccc2)CC1", "activity change": "inactive: -8.03%"},
      {"smiles": "O=C(NCCN1CCN(c2ccccc2)CC1)C1CCN(S(=O)(=O)c2cccc3nsnc23)CC1", "activity change": "inactive: -5.84%"},
      {"smiles": "CS(=O)(=O)c1ccc2sc(NC(=O)c3cc4ccccc4o3)nc2c1", "activity change": "inconclusive: -32.4% [inhibitor]"},
      {"smiles": "CN(CC(=O)Nc1ccc(OC(F)(F)F)cc1)C(=O)Cc1ccc2c(c1)CCC2", "activity change": "inconclusive: -31.6% [inhibitor]"},
      {"smiles": "CCCSc1ccc2nc(-c3ccccc3)cn2c1", "activity change": "inconclusive: -62.9% [inhibitor]"},
      {"smiles": "O=C(CCS(=O)(=O)c1cccs1)Nc1ccc(C(=O)NCc2ccc(F)cc2)cc1", "activity change": "inactive: 25.1%"},
      {"smiles": "O=C(NCCNC(=O)c1cc(Cl)ccc1Cl)c1ccco1", "activity change": "inactive: -1.79%"},
      {"smiles": "CC(c1ccccc1)c1nnc(NC(=O)Nc2ccccc2F)s1", "note": "(stereo not given)", "activity change": "inconclusive: -36% [inhibitor]"},
      {"smiles": "O=C(NCc1ccccc1Cl)c1cnc2n(c1=O)CCS2", "activity change": "inconclusive: -31.2% [inhibitor]"},
      {"smiles": "Cc1ccc(C)n1C1CCS(=O)(=O)C1", "note": "(stereo not given)", "activity change": "inconclusive: -30.1% [inhibitor]"},
      {"smiles": "COc1ccc(OC)c(C(c2nnnn2Cc2ccco2)N2CCN(C)CC2)c1", "note": "(stereo not given)", "activity change": "inactive: -3.03%"},
      {"smiles": "CC(C)C[C@H](NC(=O)N1CCn2c1nc1ccccc12)C(=O)NCCc1ccccc1", "activity change": "inactive: -10.3%"},
      {"smiles": "Cc1ccc(Nc2ncnc(N)n2)cc1", "activity change": "inconclusive: -31.6% [inhibitor]"}
    ]}
  ]
}
